# Some of the results follow.
# B1: LgFlo1 (Saccharomyces pastorianus), B3IUA8 (protein)
# chain: SGSTQACLPVGSRKNGMNVNFYKYSLQDSTTYSDPQYMAYKYSDTKKLGSVSGQTHLSIYYGPNTAFWNTASWSSDLFGFYTTPTNVTVEMTGYFLPPQTGSYTFKFATVDDSAILSVGGSIAFECCAQEQPPITSTDFTINGIKPWDAATPTDIKGSTYMYAGYYYPIKIVYSNAKALARLPVSVVLPDGTEVNDDFEGYVYSFDDDLSQSNCTIPDPSKHTTS
# Legend:
# Experiment in all cases: glycan array binding signal (z-score within array); higher = stronger binding
# Details in all cases: glycan notation: IUPAC condensed, linker removed
# [1] = target: GlcNAc(a1-6)Gal(b1-4)GlcNAc
# Method in brief: (§1)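 The Consortium for Functional Glycomics database supplied 3228 glycan arrays, of which those lacking an available protein sequence were dropped. The binding signal, a within-array Z-score, was averaged across arrays of the same protein sequence and across linkers. Negative scores can be read as non-binding.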
# [2] = target: GlcNAc(b1-2)Gal(b1-3)GalNAc
# Method in brief: as §1
# [3] = target: GlcNAc(b1-2)Man(a1-3)[GlcNAc(b1-2)Man(a1-6)]Man(b1-4)GlcNAc(b1-4)GlcNAc
# Method in brief: as §1
# [4] = target: GlcNAc(b1-2)Man(a1-3)[GlcNAc(b1-2)Man(a1-6)]Man(b1-4)GlcNAc(b1-4)[Fuc(a1-6)]GlcNAc
# Method in brief: as §1
# [5] = target: GlcNAc(b1-2)Man(a1-3)[GlcNAc(b1-4)][GlcNAc(b1-2)Man(a1-6)]Man(b1-4)GlcNAc(b1-4)GlcNAc
# Method in brief: as §1
# [6] = target: GlcNAc(b1-2)Man(a1-3)[GlcNAc(b1-4)][GlcNAc(b1-2)Man(a1-6)]Man(b1-4)GlcNAc(b1-4)[Fuc(a1-6)]GlcNAc
# Method in brief: as §1
# [7] = target: GlcNAc(b1-2)[GlcNAc(b1-4)]Man(a1-3)[GlcNAc(b1-2)Man(a1-6)]Man(b1-4)GlcNAc(b1-4)GlcNAc
# Method in brief: as §1
# [8] = target: GlcNAc(b1-2)[GlcNAc(b1-4)]Man(a1-3)[GlcNAc(b1-4)][GlcNAc(b1-2)Man(a1-6)]Man(b1-4)GlcNAc(b1-4)GlcNAc
# Method in brief: as §1
# [9] = target: GlcNAc(b1-2)[GlcNAc(b1-4)]Man(a1-3)[GlcNAc(b1-4)][GlcNAc(b1-2)[GlcNAc(b1-6)]Man(a1-6)]Man(b1-4)GlcNAc(b1-4)GlcNAc
# Method in brief: as §1
# [10] = target: GlcNAc(b1-2)[GlcNAc(b1-4)]Man(a1-3)[GlcNAc(b1-4)][GlcNAc(b1-2)[GlcNAc(b1-6)]Man(a1-6)]Man(b1-4)GlcNAc(b1-4)[Fuc(a1-6)]GlcNAc
# Method in brief: as §1
# [11] = target: GlcNAc(b1-2)[GlcNAc(b1-6)]Man(a1-6)[GlcNAc(b1-2)Man(a1-3)]Man(b1-4)GlcNAc(b1-4)GlcNAc
# Method in brief: as §1
# [12] = target: GlcNAc(b1-2)[GlcNAc(b1-6)]Man(a1-6)[GlcNAc(b1-2)Man(a1-3)]Man(b1-4)GlcNAc(b1-4)[Fuc(a1-6)]GlcNAc
# Method in brief: as §1
# [13] = target: GlcNAc(b1-2)[GlcNAc(b1-6)]Man(a1-6)[GlcNAc(b1-4)][GlcNAc(b1-2)Man(a1-3)]Man(b1-4)GlcNAc(b1-4)GlcNAc
# Method in brief: as §1
# GlcNAc(b1-3)Fuc = target: GlcNAc(b1-3)Fuc
# Method in brief: as §1
# GlcNAc(b1-3)Gal = target: GlcNAc(b1-3)Gal
# Method in brief: as §1
# [14] = target: GlcNAc(b1-3)Gal(b1-3)GalNAc
# Method in brief: as §1
# GlcNAc(b1-3)Gal(b1-4)Glc = target: GlcNAc(b1-3)Gal(b1-4)Glc
# Method in brief: as §1
# [15] = target: GlcNAc(b1-3)Gal(b1-4)GlcNAc
# Method in brief: as §1
# [16] = target: GlcNAc(b1-3)Gal(b1-4)GlcNAc(b1-2)Man(a1-3)[GlcNAc(b1-3)Gal(b1-4)GlcNAc(b1-2)Man(a1-6)]Man(b1-4)GlcNAc(b1-4)GlcNAc
# Method in brief: as §1
# [17] = target: GlcNAc(b1-3)Gal(b1-4)GlcNAc(b1-2)Man(a1-3)[GlcNAc(b1-3)Gal(b1-4)GlcNAc(b1-2)Man(a1-6)]Man(b1-4)GlcNAc(b1-4)[Fuc(a1-6)]GlcNAc
# Method in brief: as §1
# [18] = target: GlcNAc(b1-3)Gal(b1-4)GlcNAc(b1-2)[GlcNAc(b1-3)Gal(b1-4)GlcNAc(b1-6)]Man(a1-6)[GlcNAc(b1-3)Gal(b1-4)GlcNAc(b1-2)Man(a1-3)]Man(b1-4)GlcNAc(b1-4)GlcNAc
# Method in brief: as §1
# [19] = target: GlcNAc(b1-3)Gal(b1-4)GlcNAc(b1-3)Gal(b1-4)GlcNAc
# Method in brief: as §1
# [20] = target: GlcNAc(b1-3)Gal(b1-4)GlcNAc(b1-3)Gal(b1-4)GlcNAc(b1-2)Man(a1-3)[GlcNAc(b1-3)Gal(b1-4)GlcNAc(b1-3)Gal(b1-4)GlcNAc(b1-2)Man(a1-6)]Man(b1-4)GlcNAc(b1-4)GlcNAc
# Method in brief: as §1
# [21] = target: GlcNAc(b1-3)Gal(b1-4)GlcNAc(b1-3)Gal(b1-4)GlcNAc(b1-2)Man(a1-3)[GlcNAc(b1-3)Gal(b1-4)GlcNAc(b1-3)Gal(b1-4)GlcNAc(b1-2)Man(a1-6)]Man(b1-4)GlcNAc(b1-4)[Fuc(a1-6)]GlcNAc
# Method in brief: as §1
# [22] = target: GlcNAc(b1-3)Gal(b1-4)GlcNAc(b1-3)Gal(b1-4)GlcNAc(b1-2)[GlcNAc(b1-3)Gal(b1-4)GlcNAc(b1-3)Gal(b1-4)GlcNAc(b1-6)]Man(a1-6)[GlcNAc(b1-3)Gal(b1-4)GlcNAc(b1-3)Gal(b1-4)GlcNAc(b1-2)Man(a1-3)]Man(b1-4)GlcNAc(b1-4)[Fuc(a1-6)]GlcNAc
# Method in brief: as §1
# [23] = target: GlcNAc(b1-3)Gal(b1-4)GlcNAc(b1-3)Gal(b1-4)GlcNAc(b1-3)Gal(b1-4)GlcNAc(b1-2)Man(a1-3)[GlcNAc(b1-3)Gal(b1-4)GlcNAc(b1-3)Gal(b1-4)GlcNAc(b1-3)Gal(b1-4)GlcNAc(b1-2)Man(a1-6)]Man(b1-4)GlcNAc(b1-4)GlcNAc
# Method in brief: as §1
# [24] = target: GlcNAc(b1-3)Gal(b1-4)GlcNAc(b1-3)Gal(b1-4)GlcNAc(b1-3)Gal(b1-4)GlcNAc(b1-2)Man(a1-3)[GlcNAc(b1-3)Gal(b1-4)GlcNAc(b1-3)Gal(b1-4)GlcNAc(b1-3)Gal(b1-4)GlcNAc(b1-2)Man(a1-6)]Man(b1-4)GlcNAc(b1-4)[Fuc(a1-6)]GlcNAc
# Method in brief: as §1
# [25] = target: GlcNAc(b1-3)Gal(b1-4)GlcNAc(b1-3)Gal(b1-4)GlcNAc(b1-3)Gal(b1-4)GlcNAc(b1-2)[GlcNAc(b1-3)Gal(b1-4)GlcNAc(b1-3)Gal(b1-4)GlcNAc(b1-3)Gal(b1-4)GlcNAc(b1-6)]Man(a1-6)[GlcNAc(b1-3)Gal(b1-4)GlcNAc(b1-3)Gal(b1-4)GlcNAc(b1-3)Gal(b1-4)GlcNAc(b1-2)Man(a1-3)]Man(b1-4)GlcNAc(b1-4)[Fuc(a1-6)]GlcNAc
# Method in brief: as §1
# [26] = target: GlcNAc(b1-3)Gal(b1-4)GlcNAc(b1-3)Gal(b1-4)GlcNAc(b1-3)Gal(b1-4)GlcNAc(b1-3)Gal(b1-4)GlcNAc(b1-2)Man(a1-3)[GlcNAc(b1-3)Gal(b1-4)GlcNAc(b1-3)Gal(b1-4)GlcNAc(b1-3)Gal(b1-4)GlcNAc(b1-3)Gal(b1-4)GlcNAc(b1-2)Man(a1-6)]Man(b1-4)GlcNAc(b1-4)GlcNAc
# Method in brief: as §1
# [27] = target: GlcNAc(b1-3)Gal(b1-4)GlcNAc(b1-3)Gal(b1-4)GlcNAc(b1-3)Gal(b1-4)GlcNAc(b1-3)Gal(b1-4)GlcNAc(b1-2)Man(a1-3)[GlcNAc(b1-3)Gal(b1-4)GlcNAc(b1-3)Gal(b1-4)GlcNAc(b1-3)Gal(b1-4)GlcNAc(b1-3)Gal(b1-4)GlcNAc(b1-2)Man(a1-6)]Man(b1-4)GlcNAc(b1-4)[Fuc(a1-6)]GlcNAc
# Method in brief: as §1
# [28] = target: GlcNAc(b1-3)Gal(b1-4)GlcNAc(b1-3)Gal(b1-4)GlcNAc(b1-3)Gal(b1-4)GlcNAc(b1-3)Gal(b1-4)GlcNAc(b1-2)[GlcNAc(b1-3)Gal(b1-4)GlcNAc(b1-3)Gal(b1-4)GlcNAc(b1-3)Gal(b1-4)GlcNAc(b1-3)Gal(b1-4)GlcNAc(b1-6)]Man(a1-6)[GlcNAc(b1-3)Gal(b1-4)GlcNAc(b1-3)Gal(b1-4)GlcNAc(b1-3)Gal(b1-4)GlcNAc(b1-3)Gal(b1-4)GlcNAc(b1-2)Man(a1-3)]Man(b1-4)GlcNAc(b1-4)[Fuc(a1-6)]GlcNAc
# Method in brief: as §1
# [29] = target: GlcNAc(b1-3)Gal(b1-4)GlcNAc(b1-3)Gal(b1-4)GlcNAc(b1-3)GalNAc
# Method in brief: as §1
# [30] = target: GlcNAc(b1-3)Gal(b1-4)GlcNAc(b1-3)GalNAc
# Method in brief: as §1
# [31] = target: GlcNAc(b1-3)Gal(b1-4)GlcNAc(b1-3)[GlcNAc(b1-3)Gal(b1-4)GlcNAc(b1-3)]GalNAc
# Method in brief: as §1
# [32] = target: GlcNAc(b1-3)Gal(b1-4)GlcNAc(b1-6)[Gal(b1-3)]GalNAc
# Method in brief: as §1
# [33] = target: GlcNAc(b1-3)Gal(b1-4)GlcNAc(b1-6)[GlcNAc(b1-3)Gal(b1-3)]GalNAc
# Method in brief: as §1
# [34] = target: GlcNAc(b1-3)Gal(b1-4)GlcNAc(b1-6)[GlcNAc(b1-3)]Gal(b1-4)GlcNAc
# Method in brief: as §1
# GlcNAc(b1-3)GalNAc = target: GlcNAc(b1-3)GalNAc
# Method in brief: as §1
# GlcNAc(b1-3)Man = target: GlcNAc(b1-3)Man
# Method in brief: as §1
# [35] = target: GlcNAc(b1-3)[GlcNAc(b1-4)][GlcNAc(b1-6)]GlcNAc
# Method in brief: as §1
# [36] = target: GlcNAc(b1-3)[GlcNAc(b1-6)]Gal(b1-4)GlcNAc
# Method in brief: as §1
# [37] = target: GlcNAc(b1-3)[GlcNAc(b1-6)]GalNAc
# Method in brief: as §1
# [38] = target: GlcNAc(b1-4)Gal(b1-4)GlcNAc
# Method in brief: as §1
# GlcNAc(b1-4)GlcNAc = target: GlcNAc(b1-4)GlcNAc
# Method in brief: as §1
# [39] = target: GlcNAc(b1-4)GlcNAc(b1-4)GlcNAc
# Method in brief: as §1
binder,measurement,setting,value
B1,glycan array binding signal (z-score),[1],-0.389
same,glycan array binding signal (z-score),[2],-0.049
same,glycan array binding signal (z-score),[3],-0.139
same,glycan array binding signal (z-score),[4],-0.337
same,glycan array binding signal (z-score),[5],-0.511
same,glycan array binding signal (z-score),[6],-0.212
same,glycan array binding signal (z-score),[7],-0.18
same,glycan array binding signal (z-score),[8],1.6
same,glycan array binding signal (z-score),[9],-0.254
same,glycan array binding signal (z-score),[10],-0.09
same,glycan array binding signal (z-score),[11],-0.099
same,glycan array binding signal (z-score),[12],0.371
same,glycan array binding signal (z-score),[13],-0.441
same,glycan array binding signal (z-score),GlcNAc(b1-3)Fuc,-0.332
same,glycan array binding signal (z-score),GlcNAc(b1-3)Gal,-0.087
same,glycan array binding signal (z-score),[14],-0.312
same,glycan array binding signal (z-score),GlcNAc(b1-3)Gal(b1-4)Glc,-0.18
same,glycan array binding signal (z-score),[15],-0.197
same,glycan array binding signal (z-score),[16],-0.306
same,glycan array binding signal (z-score),[17],-0.266
same,glycan array binding signal (z-score),[18],-0.329
same,glycan array binding signal (z-score),[19],-0.265
same,glycan array binding signal (z-score),[20],0.397
same,glycan array binding signal (z-score),[21],-0.247
same,glycan array binding signal (z-score),[22],0.429
same,glycan array binding signal (z-score),[23],-0.028
same,glycan array binding signal (z-score),[24],-0.074
same,glycan array binding signal (z-score),[25],0.151
same,glycan array binding signal (z-score),[26],-0.257
same,glycan array binding signal (z-score),[27],-0.261
same,glycan array binding signal (z-score),[28],-0.115
same,glycan array binding signal (z-score),[29],-0.283
same,glycan array binding signal (z-score),[30],-0.337
same,glycan array binding signal (z-score),[31],-0.228
same,glycan array binding signal (z-score),[32],-0.44
same,glycan array binding signal (z-score),[33],-0.433
same,glycan array binding signal (z-score),[34],-0.238
same,glycan array binding signal (z-score),GlcNAc(b1-3)GalNAc,0.068
same,glycan array binding signal (z-score),GlcNAc(b1-3)Man,-0.469
same,glycan array binding signal (z-score),[35],-0.403
same,glycan array binding signal (z-score),[36],-0.276
same,glycan array binding signal (z-score),[37],-0.027
same,glycan array binding signal (z-score),[38],-0.297
same,glycan array binding signal (z-score),GlcNAc(b1-4)GlcNAc,-0.042
same,glycan array binding signal (z-score),[39],-0.327

# — the supplement of paper PMC8728848
